{
  "source": "PubChem BioAssay AID1259407",
  "about": "(Chemical Carcinogenesis Research Information System (CCRIS), 2018)",
  "tested_on": "CCRIS mutagenicity, Ames/micronucleus/aberration tests",
  "test": "CCRIS mutagenicity studies",
  "key": {"[1]": {"conditions": "Test System: AMES SALMONELLA TYPHIMURIUM, Strain/Indicator: TA98, Metabolic Activation: NONE, Method: STANDARD PLATE"}},
  "note": "“Also recorded” adds a separate entry of the source. Not every entry of the source has a single result; some have several. This list holds those alone. The rule behind the calls is not given here. There may be further records. Values given together are repeated measurements in other runs, samples, wells, individuals or studies. A tag in brackets gives the origin of a value. The letters are not those of the source and start again with each entry.",
  "data": [
    {"smiles": "c1ccc2c(c1)CCCC2", "values": [
      {"measurement": "mutagenic call", "setting": "Test System: MOUSE LYMPHOMA, Strain/Indicator: L5178Y (TK+/TK-), Metabolic Activation: NONE, Method: SUSPENSION/PLATE", "value": "inactive; positive. reevaluation of results: negative [study A]; also recorded: inactive; negative [study B]"}
    ]},
    {"smiles": "COc1cc(CNC(=O)CCCCCCC(C)C)ccc1O", "values": [
      {"measurement": "mutagenic call", "setting": "[1]", "value": "active; positive [study A, 100 to 1000 µg/plate] and inactive; negative [study B, 10 to 10000 µg/plate]"}
    ]},
    {"smiles": "CC(=O)Nc1ccc2ccc3c(O)ccc4ccc1c2c43", "values": [
      {"measurement": "mutagenic call", "setting": "[1]", "value": "inactive; negative [study A, 0.1 to 5 µg/plate] and active; positive [study B, 0.01 to 5 µg/plate]"}
    ]},
    {"smiles": "c1ccc2cc3c(ccc4ccccc43)cc2c1", "values": [
      {"measurement": "mutagenic call", "setting": "Test System: AMES SALMONELLA TYPHIMURIUM, Strain/Indicator: TA98, Metabolic Activation: RAT, LIVER, S-9, AROCLOR 1254, Method: STANDARD PLATE", "value": "inactive; negative [study A] and active; positive [study B]"}
    ]},
    {"smiles": "CC(C)(C)C1=CC(=O)C=CC1=O", "values": [
      {"measurement": "mutagenic call", "setting": "Test System: AMES SALMONELLA TYPHIMURIUM, Strain/Indicator: TA98, Metabolic Activation: NONE, Method: PREINCUBATION", "value": "inactive; negative [study A, 0 to 10 µg/plate] and inactive; negative [study B, 0.05 to 10 µg/plate] and active; positive [study C, 2 to 52 µg/plate]"},
      {"measurement": "mutagenic call", "setting": "Test System: AMES SALMONELLA TYPHIMURIUM, Strain/Indicator: TA100, Metabolic Activation: NONE, Method: PREINCUBATION", "value": "inactive; negative [study A, 0 to 10 µg/plate] and inactive; negative [study B, 0.05 to 10 µg/plate] and active; positive [study C, 2 to 52 µg/plate]"}
    ]},
    {"smiles": "O=C(O)c1cc2c(c3c1c([N+](=O)[O-])cc1ccccc13)OCO2", "values": [
      {"measurement": "mutagenic call", "setting": "[1]", "value": "active; positive [study A] and inactive; negative [study B]"}
    ]},
    {"smiles": "COC1=CC(=O)c2c(nc(C)c3c2[nH]c2ccccc23)C1=O", "values": [
      {"measurement": "mutagenic call", "setting": "Test System: AMES SALMONELLA TYPHIMURIUM, Strain/Indicator: TA102, Metabolic Activation: NONE, Method: STANDARD PLATE", "value": "inactive; negative [study A, 5 to 30 µg/plate] and active; positive [study B, 2.5 to 20 µg/plate]"}
    ]},
    {"smiles": "c1ccc2cc3c(ccc4ccncc43)cc2c1", "values": [
      {"measurement": "mutagenic call", "setting": "Test System: AMES SALMONELLA TYPHIMURIUM, Strain/Indicator: TA100, Metabolic Activation: NONE, Method: STANDARD PLATE", "value": "inactive; negative [study A, 0.1 to 50 µg/plate] and active; positive [study B, 0 to 50 µg/plate]"}
    ]}
  ]
}
